Hit rate of the full screen: of about 150,000 compounds, about 540 (0.36%) showed an effect of 50% or more. The list shows a part of the results.

The test system of the assay is Plasmodium falciparum. Kind of assay: Primary screen in NF54 nanoGlo assay, in single point, at 2uM, 72h; a lower Z score goes with more inhibition. Format: functional, Erythrocyte. The settings on record: timepoint 72 hour.
In the case of `COc1ccc(N2C(=O)NC(=O)C3(Cc4ccccc4N4CCOCC43)C2=O)cc1` (stereo not drawn), the % Inhibition (in general, the drop in the measured response relative to a control, in per cent) is -11% and the Z score is reported as 1.69.
The matching figures for `Cn1cc(C(=O)Cc2ccccc2)c2ccccc21`: -18% and 2.34.
Regarding `CC(=O)N[C@H]1C[C@H]2CN(Cc3c(C)noc3C)[C@@H](C)C(=O)N2C1`, the “% Inhibition” value is listed as -16% and the Z score stood at 1.45.
With `O=C(O)[C@H](C1CC1)N1CCN(C(=O)COc2ccc(Br)cc2)CC1`, the “% Inhibition” value is given as -8% and the Z score came to 1.02.
Regarding `O=C1CCN(C(=O)c2ccc(Cl)c(Cl)c2)CC1`, the “% Inhibition” value is 38% and the Z score is listed as -1.21.
The matching figures for `O=C(COC1CCCCC1)N1CCC2(CC1)OCCO2`: -13% and 1.41.
Turning to `CCc1cc(N2C[C@@H](c3cccc(OC)c3)[C@@H]3[C@H]2C2CCN3CC2)ncn1`, the “% Inhibition” value was 1% and the Z score is -0.11.
The matching figures for `O=C(CCN1C[C@H]2c3ccccc3OC[C@@]2(C(=O)O)C1)NC1CCCCC1`: -3% and 0.44.
The matching figures for `O=C(Cn1ccc2ccccc2c1=O)NC12CCCN(CC1)C2` (stereo not drawn): -10% and 1.73.
The matching figures for `CCN1CC[C@H]2OCCN(c3nc(C)nc4[nH]ccc34)[C@H]2C1`: -1% and 0.13.
As to `COc1ccc2c(ccn2CC(=O)N2CCC3(CC2)OCCO3)c1`, the “% Inhibition” value stood at 1% and the Z score is reported as -0.16.
On to `CN1CCCC2CN(c3ccc(Br)cn3)CCC21` (stereo not drawn), for which the “% Inhibition” value was -16% and the Z score was found to be 1.83.
The matching figures for `COCc1cc(CN[C@@H](C)Cc2ccccc2F)n[nH]1`: 25% and -3.12.
With `COc1nc(C)cc(C)c1Cn1cnc2c(cnn2C)c1=O`, the “% Inhibition” value is -12% and the Z score amounted to 1.47.
The matching figures for `O=C(C[C@H]1CCCO1)N1CCC(N(C(=O)C(F)(F)F)c2cccnc2)CC1`: 4% and -0.57.
The matching figures for `Cc1cc(C)c(CNc2ncccc2C#N)c(=O)[nH]1`: -13% and 1.97.
Turning to `CC[C@H](C)Oc1cccc2c1cc(C(=O)NCc1ccncc1)n2Cc1ccccc1`, the “% Inhibition” value is 2% and the Z score is on record as -0.33.
On to `O=C(c1ccc(F)cc1)[C@H]1CCCN(CCC(=O)N2CCOCC2)C1`, for which the “% Inhibition” value is reported as -6% and the Z score is recorded as 0.78.
Consider `Cc1nc(N2[C@@H]3CC[C@H]2CN(C)CC3)c2ccccc2n1`, for which the “% Inhibition” value is listed as -5% and the Z score is listed as 0.61.
For `Oc1cccc(-c2cn(CC3(N4CCOCC4)CCCCC3)nn2)c1`, the “% Inhibition” value was -11% and the Z score amounted to 1.38.
`CN1CCCN(C(=O)Cc2cnn(-c3ccccc3)c2)CC1`: the “% Inhibition” value came to 10% and the Z score is given as -1.43.
Consider `C[C@@H](Cc1ccccn1)N(C)C1Cc2ccccc2C1`, for which the “% Inhibition” value is 0% and the Z score was -0.04.
With `CNc1ncccc1C(=O)N[C@@H]1[C@@H]2CCO[C@@H]2[C@H]1N1CCCC1`, the “% Inhibition” value came out at 3% and the Z score was -0.47.
The matching figures for `CCc1ocnc1C(=O)N1C[C@H](c2cccc(F)c2F)[C@@H]2[C@H]1C1CCN2CC1`: -4% and 0.62.
As for `CC(C)n1ccc(CC(=O)N2C[C@@H]3CCCN3Cc3ccccc32)n1`, the “% Inhibition” value is listed as -10% and the Z score was found to be 0.86.
With `CCc1cc(CN(C)CCN2C[C@@H]3CC[C@H]2C3)on1`, the “% Inhibition” value is listed as -7% and the Z score is on record as 0.91.
On to `COc1ccc(C2(CN[C@H]3CCOC3)CCC2)cc1`, for which the “% Inhibition” value is -18% and the Z score is 2.23.
For `CCc1ccc(-c2n[nH]c3c2C2(C(=O)O)CC(N3)c3cc(Cl)ccc3O2)cc1` (stereo not drawn), the “% Inhibition” value is given as -10% and the Z score was determined as 1.47.
For the molecule `Cc1ccc(NC(=O)c2nnn(C3CCNCC3)c2C)cc1Cl`, the “% Inhibition” value was -4% and the Z score was 0.44.
The matching figures for `Cc1cc(C)cc(CC(C)NC(=O)NC2CCC(=O)N(C)C2)c1` (stereo not drawn): -4% and 0.7.
In the case of `CCOC(=O)c1c(C)n(Cc2ccccc2)c2cc(-c3ccccc3)c(O)cc12`, the “% Inhibition” value was 2% and the Z score is -0.28.
For the molecule `O=c1[nH]c2ccc(S(=O)(=O)NC3CCCC(C(F)(F)F)C3)cc2o1` (stereo not drawn), the “% Inhibition” value came out at 8% and the Z score was -0.98.
Take `CN1Cc2ccccc2-n2ccnc2C12CCN(C(=O)Cc1cccc(F)c1)CC2`: the “% Inhibition” value is -9% and the Z score amounted to 1.2.
The matching figures for `N#Cc1ccc(CN2C[C@H](C(=O)O)[C@@H](c3ccc(F)cc3)C2)cc1`: -3% and 0.58.
The matching figures for `CC(C)OC(=O)C1C(=O)NC23CCCCC2C1c1ccccc1O3` (stereo not drawn): 2% and -0.28.
The matching figures for `COc1ccccc1[C@@H]1CN(c2ncnc3[nH]ccc23)[C@@H]2C3CCN(CC3)[C@@H]21`: 11% and -1.48.
As for `COc1ccc(NC(=O)N2[C@H]3CC[C@@H]2c2cncnc2C3)c(C)c1`, the “% Inhibition” value is recorded as -3% and the Z score came to 0.4.
Take `Cc1cccnc1CNC(=O)NC1C2CCCC1CN(C1CC1)C2` (stereo not drawn): the “% Inhibition” value turned out to be 3% and the Z score is listed as -0.37.
On to `CCNC(=O)CN1CCC[C@H](C(=O)c2ccc3c4c(cccc24)CC3)C1`, for which the “% Inhibition” value was -10% and the Z score is 1.26.
Consider `CCCn1c(=O)cc(C)c2ccc(OCC(=O)N3CCN(C)CC3)cc21`, for which the “% Inhibition” value was -23% and the Z score stood at 2.04.
The matching figures for `C/C=C\Cn1c(C(=O)NC2CC2)cc2c(OCC)cccc21`: -16% and 1.76.
On to `CN1CCN(C(=O)Cc2cccc3ccccc23)CC1`, for which the “% Inhibition” value is -8% and the Z score amounted to 1.
Regarding `N#Cc1ccc(C(=O)N2C[C@H](c3cccc(F)c3F)[C@@H]3[C@H]2C2CCN3CC2)cn1`, the “% Inhibition” value is recorded as -7% and the Z score was 0.84.
As for `COc1cc(Cl)ccc1OCC#CCN1CCOCC1`, the “% Inhibition” value is on record as -8% and the Z score is on record as 0.83.
The matching figures for `CC(C(=O)Nc1ccc(C#N)c(Cl)c1)N1CC2OCCN(C)C2C1` (stereo not drawn): -6% and 0.8.
On to `CC(C)n1nccc1C(=O)N[C@H]1COC[C@@H]1N1CCCC1`, for which the “% Inhibition” value was -17% and the Z score was 1.86.
The matching figures for `CC(Cc1ccc(F)cc1)NC1CCCCNC1=O` (stereo not drawn): -15% and 2.25.
The matching figures for `C1CCC2(C1)CCN(CCN1CCOCC1)C2`: 4% and -0.42.
For `Cc1cc(N(C)C2CCN(Cc3ccncc3)CC2)nc(C(C)C)n1`, the “% Inhibition” value is listed as 3% and the Z score was -0.36.
Turning to `N[C@H]1C[C@@H]1c1ccccc1OC(F)(F)F`, the “% Inhibition” value turned out to be 4% and the Z score is -0.71.
The matching figures for `CN1Cc2ccccc2-n2ccnc2C12CCN(C(=O)c1ccccn1)CC2`: 6% and -1.05.
The matching figures for `CCCc1cncnc1N1C[C@H]2CC[C@@H](C1)N(CCC)C2`: 7% and -1.29.
The matching figures for `CC(C)(NC(=O)c1cccs1)C(=O)NCCc1c[nH]cn1`: 1% and -0.09.
On to `CC1CN(c2cncc(Br)c2)CC1N1CCOCC1` (stereo not drawn), for which the “% Inhibition” value is on record as -3% and the Z score is on record as 0.48.
The matching figures for `Cc1cc(C(=O)N2CC[C@@H]3CN(Cc4ccncc4)[C@@H]3C2)ccn1`: -3% and 0.37.
Take `O=C(Nc1ccccc1)OC[C@H]1C[C@@H]2CCN1C[C@@H]2c1cc(C2CCCC2)nc(-c2ccncc2)n1`: the “% Inhibition” value was 0% and the Z score is -0.01.
The matching figures for `Cc1cccc(CCN2CCN3C(=O)OC[C@H]3C2)n1`: -3% and 0.59.
`O=C(NC[C@H]1CCCCC1(F)F)c1cccc2oc(=O)[nH]c12`: the “% Inhibition” value was -1% and the Z score was found to be 0.13.
Take `CC(C)(C)c1ccc(S(=O)(=O)CCN2C[C@@H]3C[C@@H](C2)c2cccc(=O)n2C3)cc1`: the “% Inhibition” value was 4% and the Z score is reported as -0.81.
`CCn1c(=O)oc2cc(S(=O)(=O)N3CCC(CC(=O)Nc4ccc(C(C)C)cc4)CC3)ccc21`: the “% Inhibition” value is reported as -4% and the Z score is 0.36.
For the molecule `CC1CCNC(=O)C1NC(=O)Nc1ccc(C#N)c(C(F)(F)F)c1` (stereo not drawn), the “% Inhibition” value turned out to be 39% and the Z score is reported as -5.61.
With `COC1CCC(NC(=O)CCc2ccc(S(=O)(=O)F)cc2)CC1` (stereo not drawn), the “% Inhibition” value is given as -3% and the Z score stood at 0.34.
In the case of `O=c1ccc(-c2ccccc2)c2n1C[C@H]1C[C@@H]2CN(Cc2cnc3ccccc3c2)C1`, the “% Inhibition” value is listed as -10% and the Z score stood at 1.51.
The matching figures for `CN(C)c1nccc(N2CCC[C@H]2c2cccnc2)n1`: -3% and 0.65.
With `O=C(Oc1ccccc1)N1C2C1C1CC2N(C(F)(F)F)C1(F)F` (stereo not drawn), the “% Inhibition” value is given as -2% and the Z score turned out to be 0.31.
In the case of `C[C@@H](Cn1cccn1)NCc1cc(Br)c2c(c1)OCO2`, the “% Inhibition” value is 21% and the Z score is recorded as -2.48.
The matching figures for `C[C@@H](Cc1ccccc1F)NC(=O)NCCC(F)(F)F`: -4% and 0.42.
As for `O=C1O[C@H]2CN(Cc3ccccn3)C[C@H]2N1C1CCCC1`, the “% Inhibition” value is -22% and the Z score was 1.9.
As for `Cc1cccc(NC(=O)N2CCN(CCO[C@@H](c3ccccc3)c3cccc(C(F)(F)F)c3)CC2)c1`, the “% Inhibition” value is 0% and the Z score stood at 0.02.
On to `CN1C(=O)C(C(=O)c2ccc(Cl)cc2)C(=O)N(C)C1=O`, for which the “% Inhibition” value was -10% and the Z score was 1.14.
The matching figures for `c1ccc(-c2ccc3c(c2)CNCC3)cc1`: -2% and 0.41.
In the case of `COc1cccc(C(=O)[C@H]2CCCN(C3CCN(C(C)C)CC3)C2)c1`, the “% Inhibition” value is recorded as -6% and the Z score came out at 0.78.
Regarding `NCCc1cc(Cl)ccc1Br`, the “% Inhibition” value was -9% and the Z score is listed as 1.39.
The matching figures for `Cc1ccc([C@H]2CN(c3nccnc3C)[C@@H]3C4CCN(CC4)[C@H]23)cc1`: -1% and 0.15.
The matching figures for `C[C@@H](c1ncc(C(C)(C)C)o1)n1nc(-c2ccco2)oc1=O`: -4% and 0.53.
Turning to `O=C(CC[C@@H]1CCCN2CCCC[C@H]12)N1CCc2ncccc2C1`, the “% Inhibition” value is -9% and the Z score was determined as 1.17.
The matching figures for `Cc1cc(C(F)(F)F)c2c(C(N)=O)cn(C(C)(C)C)c2n1`: 35% and -1.1.
The matching figures for `CC(C)c1noc(N2CCC[C@H]2c2cccnc2)n1`: -1% and 0.19.
The matching figures for `Cc1oc2nc(CN3CCOC4(CCOCC4)C3)nc(N)c2c1C`: -2% and 0.27.
Regarding `Cc1cc(C)n(C[C@H](C)N(C)CCc2scnc2C)n1`, the “% Inhibition” value is on record as -3% and the Z score was 0.54.
The matching figures for `Cc1noc([C@@H]2CN(C(=O)COc3ccc(F)cc3)CCCN2CC(C)C)n1`: -7% and 1.39.
The matching figures for `CN1CC[C@H](CNS(=O)(=O)c2ccc3[nH]c(=O)oc3c2)CC1=O`: -10% and 1.13.
The matching figures for `Cc1nn(C(C)(C)C)c(C)c1C(=O)Oc1ccc2c(c1)OCO2`: -4% and 0.74.
For the molecule `C[C@H]1CCN(C(=O)Cc2ccc(N)cc2)CCN1Cc1ccccc1`, the “% Inhibition” value was -6% and the Z score stood at 0.58.

These data come from ChEMBL document CHEMBL4888484, “Replenishing the malaria drug discovery pipeline: Screening and hit evaluation of the MMV Hit Generation Library 1 (HGL1) against asexual blood stage Plasmodium falciparum ,using a nano luciferase reporter read-out” (2022).
